Where two headings read alike, the source gives them in different places. Starred links: 1 amine or outer side, 2 acyl side, 3 side chain; linkers in the order of their positions; H or OH if unused. Positions of bridges follow the written chain, without caps; N, C: chain ends. Non-standard residues stand in square brackets, D forms with d. Residues, ends and D or L forms follow the SMILES beside them. *: point of attachment. dAsp(3R-OH) = N[C@@H](C(=O)O)[C@@H](O)C(=O)O; Palmitoleoyl = CCCCCC/C=C\CCCCCCCC(=O)*; X1 = NC[C@H](O)[C@@H](N[*:1])C(=O)[*:2]; X2 = CCC(C)(O)[C@H](N[*:1])C(=O)[*:2]; d(aIle) = CC[C@H](C)[C@@H](N)C(=O)O; Myristoyl = CCCCCCCCCCCCCC(=O)*; dOrn = NCCC[C@@H](N)C(=O)O; hSer = N[C@@H](CCO)C(=O)O
System: A. baylyi strain ADP1
Settings: for terminal cell morphology / effect on cells: A. baylyi; for terminal cell morphology: drug at the MIC; for effect on cells: concentrations 4 times the MIC
[1] = concentration used for growth inhibition, FIG. 4

Compound	approximate MIC (A. baylyi) [mg/L]	terminal cell morphology	effect on cells	approximate MIC (A. baylyi) [1] [mg/L]
Colistin [reference compound]	0.5	clumped, rounded cells	–	–
CCCCCCCCCCCCCC(=O)N[C@H](CCCN)C(=O)N[C@@H](CO)C(=O)N[C@H](C(=O)N[C@@H](C(=O)N[C@@H](C(=O)N[C@@H]1C(=O)NCC(=O)N[C@@H](C(C)(O)CC)C(=O)N[C@H]([C@@H](C)CC)C(=O)N[C@@H](CCO)C(=O)N[C@@H](C)C(=O)N[C@H]([C@@H](C)CC)C(=O)N[C@@H](CCC(=O)O)C(=O)O[C@@H]1C)[C@@H](O)CN)[C@@H](O)C(=O)O)C(C)C (stereo partly drawn) [Compound 1, Turnercyclamycin A] (Myristoyl-[dOrn]SV[dAsp(3R-OH)][X1]TG[X2][d(aIle)][hSer]A[d(aIle)]E; ester 6-C)	–	rounded and clumped	killed cells immediately	8
CCCCCC/C=C\CCCCCCCC(=O)N[C@H](CCCN)C(=O)N[C@@H](CO)C(=O)N[C@H](C(=O)N[C@@H](C(=O)N[C@@H](C(=O)N[C@@H]1C(=O)NCC(=O)N[C@@H](C(C)(O)CC)C(=O)N[C@H]([C@@H](C)CC)C(=O)N[C@@H](CCO)C(=O)N[C@@H](C)C(=O)N[C@H]([C@@H](C)CC)C(=O)N[C@@H](CCC(=O)O)C(=O)O[C@@H]1C)[C@@H](O)CN)[C@@H](O)C(=O)O)C(C)C (stereo partly drawn) [Compound 2, Turnercyclamycin B] (Palmitoleoyl-[dOrn]SV[dAsp(3R-OH)][X1]TG[X2][d(aIle)][hSer]A[d(aIle)]E; ester 6-C)	–	rounded and clumped	killed cells immediately	8

— US12215129B2, “Antibacterial cyclopeptides targeting acinetobacter and other gram-negative pathogens” (priority 2020, dated 2025)
